*: point of attachment. Palmitoyl = CCCCCCCCCCCCCCCC(=O)*
Key:
Aβ42 [1] = biological target: T1, Aβ42 (Homo sapiens, UniProt P05067); assay: morphology of aggregated Aβ42 by negatively stained TEM; assay type: biochemical; conditions: 16 hours at 37° C.; peptide alone, PA alone or non-annealed co-assemblies
T1 construct: incubated at 37° C. with monomeric Aβ42
Procedure: FIG. 22. Representative negative staining TEM images of Aβ42 incubated under 37° C. for 16 hours without or with PA or P4 alone, P4/PA co-assemblies at non-annealed and annealed states. Scale bar is 100 nm.
To characterize the morphology of Aβ42 aggregated in the presence of P4/PA co-assemblies, monomeric Aβ42 was incubated by itself, with P4 alone, with PA alone, or with P4/PA co-assemblies for 16 hours at 37° C., and the resulting solutions were imaged by negatively stained TEM (FIG. 22).

[2] = test system: primary mouse cortical neurons; assay: Aβ42 neurotoxicity: LDH assay and cleaved caspase-3 western blot; conditions: peptide alone or non-annealed assemblies; LDH 24 h and 48 h, caspase-3 12 h
Aβ42 [3] = biological target: T1, Aβ42; assay: Aβ42 aggregation monitored by thioflavin T (ThT) fluorescence assay; assay type: biochemical; conditions: total 30 μM, 37° C.
Procedure: FIG. 21. Aβ42 aggregation kinetics monitored by ThT fluorescence at 37° C. for 12 hours. Incubation starts with 10 μM Aβ42 and aged (FIG. 21A) or annealed (FIG. 21B) PA solution at different concentrations.

[4] = biological target: T2, peptide amphiphile C16-V3A3E3 (N-palmitoyl group conjugated to V3A3E3) (SMILES …(=O)N[C@H](C(=O)N[C@H](C(=O)N[C@H](C(=O)N[C@@H](C)C(=O)N[C@@H](C)C(=O)N[C@@H](C)C(=O)N[C@@H](CCC(=O)O)C(=O)N[C@@H](CCC(=O)O)C(=O)N[C@@H](CCC(=O)O)C(N)=O)C(C)C)C(C)C)C(C)C); assay: fluorescence anisotropy of TAMRA-conjugated peptide, non-annealed peptide/PA co-assemblies against peptide alone
T2 construct: Self-assembles into nanofilaments or nanoribbons, so in the assays it is a supramolecular assembly, annealed or non-annealed, and not a monomer; also called E3 PA
T2 peptide: Palmitoyl-VVVAAAEEE-NH2

Row | Molecule | morphology of Aβ42 aggregated in the presence of the sample (Aβ42 [1]) | cell death / neurotoxicity in the presence of Aβ42 (LDH, cleaved caspase-3) [2] | inhibition of Aβ42 β-sheet aggregation (reduced ThT signal relative to Aβ42 alone) (Aβ42 [3]; annealed) | inhibition of Aβ42 β-sheet aggregation (reduced ThT signal relative to Aβ42 alone) (Aβ42 [3]; non-annealed (without annealing)) | binding result [4]
1 | Ac-LPFFD-NH2 [P4, Ac-LPFFD (SEQ ID NO: 45)-NH2, reference compound] | mostly micelles and very few fibrils of reduced length | decreased cell death compared to Aβ42 |  |  | 
2 | C16-V3A3E3 (SEQ ID NO: 47) (Palmitoyl-VVVAAAEEE-NH2) [peptide amphiphile composed of N-palmitoyl group conjugated to V3A3E3] | a mixture of micelles and fibrils that were polydisperse in width |  | 34% | 22% | 
3 | Ac-VVVAAAEEE-NH2 [free peptide P1 (V3A3E3)] |  |  |  |  | binds
